From PubChem BioAssay AID485364 (National Center for Advancing Translational Sciences (NCATS), 2010)
Several values for one entry are separate records, joined by “and”; a condition that tells them apart may be missing. Equal values may be shown once. The whole screen tested about 360,000 compounds, of which about 11,000 (3.1%) were called active. Inconclusive means that the source gave no clear call. Such entries were picked first, then a sample of the others. Calls follow the shape of the dose curve; as a rule, active = well fitted inhibition curve with a large enough effect; inconclusive = small, poorly fitted or top-dose-only effect; inactive = no such curve, though single readings can be large or run the other way. No potency is given beside an inconclusive call; the fits are too rough.

Target: Schistosoma mansoni thioredoxin glutathione reductase (TGR) (UniProt Q962Y6)
Test: qHTS Assay for the Inhibitors of Schistosoma Mansoni Peroxiredoxins; also: nearly all actives have a fitted effect of over 60% in size
Settings: purified TGR, DTNB reduction, TNB absorbance 405 nm; activity change, negative = inhibition: at 114 µM (top of the series) unless noted
In short: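 TGR 20 nM + NADPH 100 uM (dispensed conc.), cpd preinc 15 min RT; start with NADPH (500 uM addition) then DTNB (15 mM addition). Kinetic TNB absorbance, 405 nm filter. Four-parameter Hill fit across titration.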
% is scaled to controls: 0 for no effect and ±100 for the full control effect; potency is read from the fitted curve at half-maximal effect; tags tell the direction and shape of the fitted curve.

Row | Compound | Potency | activity change, negative = inhibition
1 | CCOC(=O)c1ccc(CNC(=O)C2CCC(=O)N(Cc3cccc(OC)c3)C2)o1 (centres undefined) | inconclusive [inhibitor, partial curve] | –
2 | CC(C)C(c1nnnn1Cc1ccco1)N1CCN(c2nc3ccccc3s2)CC1 (centres undefined) | inconclusive [inhibitor, partial curve] | –
3 | COC(=O)C1=C(C)N(c2ccc(C(=O)OC)cc2)C(=O)C1 | inconclusive [inhibitor, full curve] | –
4 | CCn1c(NCc2ccc(OC)cc2)nc2ccccc21 | inactive | –
5 | COc1cc(/C=N/Nc2ccc(F)cc2F)cc(OC)c1O | active: 25.1 µM | –
6 | CC(C)(C)c1cc(CP(=O)(c2ccccc2)c2ccccc2)cc(C(C)(C)C)c1O | inconclusive [inhibitor, partial curve] | –
7 | COC(=O)C1=C(C)Nc2nc(-c3ccccc3)nn2C1c1ccc(C)o1 (centres undefined) | inconclusive [inhibitor, partial curve, poor fit] | –
8 | N#CC(C#N)=C(N)/C(C#N)=C/c1cc(O)c(O)c(O)c1 | inconclusive [inhibitor, partial curve] | –
9 | C#CC(=O)N(c1cccc(OC)c1)C(C(=O)NC1CCCC1)c1cccs1 (centres undefined) | active: 7.94 µM | –
10 | Cc1cccc(OCCSc2nc(N)cc(N)n2)c1 | inactive | –
11 | COc1ccc(S(=O)(=O)N(C)CC(=O)Nc2cccc(C(C)=O)c2)cc1C | inconclusive [inhibitor, single point] | –
12 | Cc1ccc(-c2nc3cnccn3c2Nc2c(C)cccc2C)o1 | active: 14.1 µM | –
13 | O=C(NCCCN1CCCC1=O)C1CCC(CNS(=O)(=O)c2ccc(Cl)cc2)CC1 (centres undefined) | inactive | –
14 | COc1ccccc1OC(C)C(=O)Nc1c(C(=O)c2ccc(Cl)cc2)oc2ccccc12 (centres undefined) | inactive | –
15 | CC1CCc2c(sc(/N=C/c3cccnc3)c2C(N)=O)C1 (centres undefined) | inconclusive [inhibitor, partial curve] | –
16 | CC1(C)CC(=O)C2=C(C1)OC(N)=C(C#N)C2C#Cc1ccccc1 (centres undefined) | active: 1.58 µM | –
17 | COC(=O)c1ccc(-n2c(CCC(=O)O)ccc2-c2ccc(C)cc2)cc1 | active: 10 µM and active: 28.2 µM | –
18 | CCCCOc1ccc(CNC(=O)c2ccc(NC(=O)N3CCCCc4ccccc43)cc2)cc1 | inconclusive [inhibitor, single point] | –
19 | CCCCc1ncc(CN2CCC(n3nccc3NC(=O)c3ccccc3OC)CC2)[nH]1 | inactive | –
20 | O=C(O)c1ccc(N2CC3CC(C2)c2cccc(=O)n2C3)c(NC(=S)Nc2ccc(Br)cc2)c1 (centres undefined) | inconclusive [inhibitor, partial curve] | –
21 | Cc1cccc(CS(=O)(=O)Cc2ccc(C(=O)NC3CCCCCC3)o2)c1 | inconclusive [inhibitor, partial curve] | –
22 | CC(=O)n1cc([C@@H]2C=C(C(=O)N3CCOCC3)O[C@H](OCCCCO)C2)c2ccccc21 | inconclusive [inhibitor, partial curve] | –

Row | Compound | Potency | activity change, negative = inhibition
23 | O=C(Nc1ccc(OCC(F)(F)C(F)F)cc1)c1ccncc1 | inactive | –
24 | Cc1cccc(-n2c(O)c(C=NCCCN3CCOCC3)c(=O)[nH]c2=O)c1C | inconclusive [inhibitor, partial curve] | –
25 | COC(=O)c1ccc(NC(=O)CSc2nnc(CNc3ccc(OC)cc3)n2C)cc1 | inconclusive [inhibitor, partial curve] | –
26 | COc1ccc(CNc2ccc3c(c2)nc(C)n3C)cc1 | – | inactive: 1.72% [at 11.4 µM]
27 | Cc1cc2cc(C(c3nnnn3Cc3ccco3)N3CCc4ccccc43)c(=O)[nH]c2cc1C (centres undefined) | inconclusive [inhibitor, full curve] | –
28 | Cc1ccc(C)c2[nH]c(=O)c(CN(Cc3nnnn3C3CCCCC3)CC3CCCO3)cc12 (centres undefined) | inconclusive [inhibitor, partial curve] | –
29 | CC(=O)NNc1nc(-c2ccc(C)cc2)cs1 | inconclusive [inhibitor, partial curve] | –
30 | COCCCNC(=O)CS(=O)Cc1nc(-c2cccc(OC)c2)oc1C (centres undefined) | active: 39.8 µM | –
31 | CCn1c(SCC(=O)Nc2nnc(C)s2)nnc1-c1ccco1 | inconclusive [inhibitor, single point] | –
32 | CCCCCCCC1c2c(c(C)c(C)oc2=O)Oc2c(C)c(C)oc(=O)c21 | inconclusive [inhibitor, single point] | –
33 | CSc1nnc(NC(=O)c2nc(S(=O)(=O)Cc3ccccc3F)ncc2Cl)s1 | active: 28.2 µM | –
34 | COc1ccc(-n2ncc3c2CC(C)(C)CC3NC(=O)CCc2c(C)noc2C)cc1 (centres undefined) | inconclusive [inhibitor, single point] | –
35 | CCN1C(=O)/C(=C/N(C(C)=O)c2ccccc2)N(c2ccccc2)C1=S | inconclusive [inhibitor, single point] | –
36 | CCOC(=O)N1CCN(C(=O)CSc2cc(C)nc3c(-c4ccccc4OC)c(C)nn23)CC1 | inactive | –
37 | Cn1nccc1C(=O)N1CCCC(N2CCN(c3cccc(C(F)(F)F)c3)CC2)C1 (centres undefined) | inconclusive [inhibitor, partial curve] | –
38 | O=C1C(=O)N(c2nccs2)C(c2ccccc2F)/C1=C(\O)c1ccc2c(c1)OCCO2 (centres undefined) | inconclusive [inhibitor, full curve] | –
39 | CCCCn1nnc(NC(=S)NC(=O)c2ccc(OCC)c([N+](=O)[O-])c2)n1 | active: 39.8 µM | –
40 | Cc1cc(C)n2nc(C(=O)OCC(=O)c3cc(C)n(C)c3C)nc2n1 | inconclusive [inhibitor, partial curve] | –
41 | CCCn1c(SCc2ccc(C(=O)OC)o2)nc2ccccc2c1=O | inconclusive [inhibitor, full curve, poor fit] | –
42 | NC(=O)N/N=C1\c2ccccc2-c2c(C(N)=O)cccc21 | inactive | –
43 | CC(=O)N(Cc1ccco1)Cc1cc2cccc(C)c2n2nnnc12 | inconclusive [inhibitor, full curve] | –
44 | CSc1nc(SCC(N)=O)c2c3c(sc2n1)CN(C)CC3 | inactive | –
